From the supplement of paper PMC5919970 come the findings set out here.

Structures can show the parent of a compound that is named as a salt. Over roughly 2,000 compounds, “fractional viability relative to vehicle” has its median near 0.92; the lowest 2% begin near 0.11. This is one part of the list.

The test relates to TYKNU. Description: fractional viability relative to vehicle; TYKNU is a high-grade serous ovarian cancer line; higher = less growth inhibition. The following applies: 72 h, genotype: OPA1 knockout (sgOPA1 #2). In a few lines:
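Drug treatment lasted 72 h, with cells grown at 37 °C in 5% CO2 in RPMI 1640 supplemented with 10% FBS. Beforehand, TYKNU control cells or their lentiCRISPRv2 knockout derivatives had been seeded at 500 cells per well into drug-stamped 384-well plates carrying a ~2100-compound library at 2 or 10 μM, in duplicate. Viability came from Cell Titer Glo luminescence, with averaged duplicate treatment wells normalised to duplicate control wells in the same plate position.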

For `O=C(NCC1(c2nc(-c3ccccc3)cs2)CCOCC1)c1cccc(-c2noc(C(F)(F)F)n2)c1`, the fractional viability stood at 0.944 (2uM) and 0.878 (10uM).
As to `CCc1c2c(nc3ccc(O)cc13)-c1cc3c(c(=O)n1C2)COC(=O)[C@]3(O)CC`, the fractional viability by setting is: (2uM) 0.217; (10uM) 0.128.
The corresponding values for `C#CCN[C@@H]1CCc2ccccc21` [Rasagiline Mesylate] are 0.997 and 0.927.
For `COc1cc(OC2CCN(C)CC2)ccc1Nc1ncc2c(n1)n(C1CCCC1)c(=O)n2C` the same measures were 0.889 and 0.724.
For `COc1ccc(NS(=O)(=O)c2sc3ccc(Cl)cc3c2C)cc1N1CCNCC1` the same measures were 0.965 and 0.939.
`CCOc1nc2cccc(C(=O)OCc3oc(=O)oc3C)c2n1Cc1ccc(-c2ccccc2-c2noc(=O)[nH]2)cc1` [Azilsartan Medoxomil]: the fractional viability (2uM) is 1.03 and the fractional viability (10uM) is 0.902.
The corresponding values for `CCN(C(=O)c1c(O)c2c(Cl)cccc2n(C)c1=O)c1ccccc1` [Laquinimod] are 1.13 and 1.1.
For `CN1CC(=O)N2[C@H](c3ccc4c(c3)OCO4)c3[nH]c4ccccc4c3C[C@@H]2C1=O` [Tadalafil] the same measures were 1.11 and 1.06.
The corresponding values for `CC(C)NCC(O)COc1ccc(CCOCC2CC2)cc1` (stereo not drawn) [Betaxolol] are 0.974 and 1.12.
For `CCc1nc(N)nc(N)c1-c1ccc(Cl)cc1` [Pyrimethamine], the fractional viability runs as follows: (2uM) 1.07; (10uM) 0.632.
For `Cc1c(C(=O)NN2CCCCC2)nn(-c2ccc(Cl)cc2Cl)c1-c1ccc(I)cc1` the same measures were 0.982 and 0.754.
For `CC(C)(OCc1nn(Cc2ccccc2)c2ccccc12)C(=O)O` [Bindarit] the same measures were 0.959 and 0.766.
The corresponding values for `CCCN1CCCC[C@H]1C(=O)Nc1c(C)cccc1C` [Ropivacaine HCl] are 0.883 and 0.94.
Regarding `CC(NC(=O)c1ccccc1/N=C/c1c(O)ccc2ccccc12)c1ccccc1` (stereo not drawn) [Sirtinol], the fractional viability reads like this: (2uM) 0.895; (10uM) 0.987.
For `Cc1cccc(-c2[nH]c(C(C)(C)C)nc2-c2ccc3c(c2)OCO3)n1` the same measures were 1.2 and 0.682.
The corresponding values for `CNCc1ccc(-c2cc(-c3nc(-c4ccc(S(=O)(=O)C(C)C)cc4)cnc3N)on2)cc1` are 0.792 and 0.849.
The corresponding values for `CN1CCN(CCCN2c3ccccc3Sc3ccc(C(F)(F)F)cc32)CC1` [Trifluoperazine 2HCl] are 1.08 and 0.81.
Take `CC(S)C(=O)NCC(=O)O` (stereo not drawn) [Tiopronin]: the fractional viability is 0.996 (2uM) and 1.07 (10uM).
For `O=C(NCc1ccccc1)c1csc(Nc2ccncn2)n1` [Thiazovivin] the same measures were 1.09 and 1.14.
For `CNC[C@H](O)c1ccc(O)c(O)c1` [Epinephrine Bitartrate] the same measures were 0.973 and 0.749.
The corresponding values for `CNC[C@H](O)c1ccc(O)c(O)c1` [Epinephrine HCl] are 0.934 and 0.637.
Take `CN(CC(=O)N(Cc1ccc(C2CCCCC2)cc1)c1ccc(C(=O)O)cc1)S(=O)(=O)c1c(F)c(F)c(F)c(F)c1F`: the fractional viability came to 0.662 (2uM) and 0.0586 (10uM).
The corresponding values for `OC(CNCC(O)C1CCc2cc(F)ccc2O1)C1CCc2cc(F)ccc2O1` (stereo not drawn) [Nebivolol] are 0.973 and 0.521.
With `O=C(CCc1ccc(O)cc1)c1c(O)cc(O)cc1O` [Phloretin], the fractional viability is, setting by setting: (2uM) 1.02; (10uM) 0.933.
The corresponding values for `CC[C@H](C)[C@H](N)C1=N[C@H](C(=O)N[C@@H](CC(C)C)C(=O)N[C@H](CCC(=O)O)C(=O)N[C@H](C(=O)N[C@H]2CCCCNC(=O)[C@H](CC(N)=O)NC(=O)[C@@H](CC(=O)O)NC(=O)[C@H](Cc3cnc[nH]3)NC(=O)[C@@H](Cc3ccccc3)NC(=O)[C@H]([C@@H](C)CC)NC(=O)[C@@H](CCCN)NC2=O)[C@@H](C)CC)CS1` [Bacitracin] are 0.798 and 0.806.
For the compound `C=CCNC(N)=S` [Allylthiourea], the fractional viability reads like this: (2uM) 0.993; (10uM) 0.892.
For `CNC(=O)c1cccc(-c2ccc3c(N4CCOC[C@@H]4C)nc(N4CCOC[C@@H]4C)nc3n2)c1` the same measures were 0.333 and 0.49.
Regarding `CN(C)CCOC(C)(c1ccccc1)c1ccccn1` (stereo not drawn) [Doxylamine Succinate], the fractional viability worked out at 1.07 (2uM) and 0.882 (10uM).
For `COc1cccc(-c2cc(=O)c3ccccc3o2)c1N` the same measures were 1.42 and 1.36.
For `C[C@@H](O)[C@H]1C(=O)N2C(C(=O)O)=C(S[C@@H]3CN[C@H](CNS(N)(=O)=O)C3)[C@H](C)[C@H]12` [Doripenem Hydrate] the same measures were 0.934 and 1.08.
The corresponding values for `COc1cccc(-n2c(=O)[nH]c3cc(Cl)n(-c4ccc(-c5cccc(OC)c5O)cc4)c3c2=O)c1` are 0.827 and 0.807.
On to `CC(C)(C#N)c1cc(Cn2cncn2)cc(C(C)(C)C#N)c1` [Anastrozole], for which the fractional viability reads like this: (2uM) 1.26; (10uM) 0.942.
The corresponding values for `COc1cc2nccc(Oc3ccc(NC(=O)Nc4cc(C)on4)c(Cl)c3)c2cc1OC` [Tivozanib (AV-951)] are 1.54 and 1.23.
For `CCc1cc(Nc2nccc(-c3c(-c4ccc(OC)c(C(=O)Nc5c(F)cccc5F)c4)nc4ccccn34)n2)c(OC)cc1N1CCC(N2CCN(S(C)(=O)=O)CC2)CC1` the same measures were 1.15 and 0.975.
